According to PubChem BioAssay AID1745853 (National Center for Advancing Translational Sciences (NCATS), 2022):
Several values for one entry are separate records, joined by “and”; a condition that tells them apart may be missing. Identical values can stand only once. The list shows a part of the results. The main result of the screen is listed elsewhere. These columns were measured beside it and carry no call.

Key:
Assay in all cases: Primary Screen for Target Class Profiling of Small Molecule Inhibitors of Methyltransferases
[1] = biological target: Glycine N-methyltransferase (Homo sapiens) (UniProt Q14749); details: purified enzyme, MTase-Glo SAH luminescence; measured here: GNMT inhibition; at 40 µM; stronger effect = lower value
Summary of the method: (§1)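 Each enzyme was assayed with SAM and its substrate. SAH formation detected by MTase-Glo luminescence; single-point 40 uM screen[…].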

[2] = biological target: Guanidinoacetate N-methyltransferase (Homo sapiens) (UniProt Q14353); details: purified enzyme, MTase-Glo SAH luminescence; measured here: GAMT inhibition; at 40 µM; stronger effect = lower value
Summary of the method: as §1

[3] = biological target: Histamine N-methyltransferase (Homo sapiens) (UniProt P50135); details: purified enzyme, MTase-Glo SAH luminescence; measured here: HNMT inhibition; at 40 µM; stronger effect = lower value
Summary of the method: as §1

[4] = biological target: Nicotinamide N-methyltransferase (Homo sapiens) (UniProt P40261); details: purified enzyme, MTase-Glo SAH luminescence; measured here: NNMT inhibition; at 40 µM; stronger effect = lower value
Summary of the method: as §1

[5] = biological target: Phenylethanolamine N-methyltransferase (Homo sapiens) (UniProt P11086); details: purified enzyme, MTase-Glo SAH luminescence; measured here: PNMT inhibition; at 40 µM; stronger effect = lower value
Summary of the method: as §1
On the % scale 0 is the no-effect control and ±100 the full control effect.

SMILES	activity change, negative = inhibition [1]	activity change, negative = inhibition [2]	activity change, negative = inhibition [3]	activity change, negative = inhibition [4]	activity change, negative = inhibition [5]
Cc1ccccc1CCN1C(=O)c2ccc(-c3ccco3)n2CC1(C)C(=O)NC1CCCCC1 (stereo not drawn)	-9.47%	0.606%	-4.46%	-10.2%	-1.47%
O=P(O)(O)C(O)(Cc1cccnc1)P(=O)(O)O	-0.344% and 4.61%	4.35% and -11.3%	10.1% and -3.23%	-9.89% and -18.6%	5.44% and -13.2%
COc1ccccc1CCNC(=O)c1cc2n(n1)CC(C)(C(=O)NCCC(C)C)N(C)C2=O (stereo not drawn)	5.61%	1.44%	3.66%	6.11%	2.98%
CCCn1c(=O)c2cc(Cl)ccc2n2c(=O)n(CC(=O)Nc3cc(OC)cc(OC)c3)nc12	1.12%	3.64%	10.2%	1.32%	1.66%
CCOc1nc2c(N)ncnc2n1CC	-7.26%	-7.8%	6.7%	-28.8%	-2.56%
CCN1/C(=C/C(C)=O)Sc2ccc(OC(C)=O)cc21		2.45%		-22.9%	1.79%
CC/C=C\CC1C(=O)C=CC1(CCCCC1CCC(=O)O1)OC(C)=O (stereo not drawn)	0%	-2.54%	0.814%	-17.1%	0.457%
Cc1cnc(CCNC(=O)Nc2ccc3c(c2)OCCO3)n1C1CCC1	-5.19%	-3.26%	-73.2%	-11%	-3.62%
O=C([C@@H]1Cc2nc[nH]c2CN1Cc1ccc(C(F)(F)F)cc1)N1CCOCC1	-3.44%	-8.16%	-0.677%	-12.5%	-10.9%
CC1(C(=O)NC2CCCCC2)Cn2c(c(-n3cccc3)c3ccccc32)C(=O)N1Cc1cccs1 (stereo not drawn)	-2.94%	3.07%	0.432%	-10.2%	-1.56%
O=C(Nc1ccc2[nH]ncc2c1)C1CCC1	-4.87% and -2.32%	2.39% and -9.22%	-0.439% and 4.67%	-2.47% and -13.7%	8.45% and 0.779%
Cc1cccc(-c2nnn3c2nc(NCc2ccc4c(c2)OCO4)c2ccccc23)c1	5.02%	0.105%	2.52%	-0.867%	-1.39%
CC(C)CCN1C(=O)c2ccc(-c3ccco3)n2CC1(C)C(=O)NC1CCCCCCC1 (stereo not drawn)	-10.4%	0.375%	-6.17%	-10.6%	-6.78%
CCN(CC)CCNC(=O)CCc1nnc2n(Cc3ccc(Cl)cc3)c(=O)c3ccccc3n12	-5.61%	4.47%	-50.5%	-2.81%	-1.69%
Cn1cc(CN2CC3(COCC(=O)N(Cc4cccc(OC(F)(F)F)c4)C3)C2)cn1	-6.29%	-10.4%	-6.02%	-16.4%	3.67%
CC(C)CNC(=O)c1ccc2c(=O)n(C)c3nn(CC(=O)Nc4ccc(C(C)C)cc4)c(=O)n3c2c1	4.08%	0.177%	4.52%	-1.99%	5.86%
CCCN1C(=O)c2c(C(=O)NCc3ccc(C)cc3)ncn2CC1(C)C(=O)NCc1ccc(C)cc1 (stereo not drawn)	1.52%	0%	7.65%	4.29%	5.7%
c1ccc(N2CCN(CCc3nn[nH]n3)CC2)cc1	-2.29%	-2.82%	-4.53%	-12.5%	-9.26%
Cc1ccc(Cc2nn3c(SCC(=O)Nc4ccc(C)cc4C)nnc3[nH]c2=O)cc1	-4.92%	1.8%	-7.49%	-8.96%	-9.65%
N[C@@H](Cc1ccc(F)cc1)C(=O)O	-4.68%	4.66%	0.976%	-4.74%	6.64%
CC(C)=C1CC2[C@](C)(CC[C@@H](OC(=O)C3(C)OC3C)[C@@]2(C)O)CC1=O (stereo partly drawn)	0.207%	6.69%	11.5%	-4.23%	5.38%
Cc1ccccc1Cn1nc2n(C(C)C)c(=O)c3ccc(C(=O)NCC(C)C)cc3n2c1=O	1.03%	3.73%	0.786%	1.43%	0.973%
C=C1CC[C@H]2[C@@](C)(CCC(O)[C@@]2(C)CO)[C@@H]1CCC1=CCOC1=O (stereo partly drawn)	-3.12%	-5.7%	1.61%	-16.9%	-4.24%
CC1(C(=O)NCc2ccccc2)Cn2nc(-c3ccccc3)cc2C(=O)N1c1ccc2c(c1)OCCO2 (stereo not drawn)	-2.05%	5.12%	-1.5%	-1%	-3.57%
COc1ccccc1N1C(=O)c2cc3ccccc3n2CC1(C)C(=O)NC1CCCCCC1 (stereo not drawn)	1.92%	3.99%	2.9%	-10%	-4.87%
COc1ccc(Cl)cc1NC(=O)CSc1nnc2n(CC(C)C)c(=O)c3cc(F)ccc3n12	-1.4%	4.35%	4.88%	-2.45%	-1.67%
CC(C)OCCCN1C(=O)c2ccc(-c3ccco3)n2CC1(C)C(=O)NC1CCCCCC1 (stereo not drawn)	-0.817%	0%	5.69%	0.162%	-0.95%
O=C(c1ccccc1F)N1CCC(N2Cc3ccccc3C2=O)CC1	-3.48%	-6.7%	-1.23%	-11.4%	-3.57%
COC(=O)[C@H](NC(=O)[C@@H]1C[C@H](NC(=O)Nc2ccc(OC)cc2)CN1C(=O)C=C(C)C)C(C)C	-4.64%	-0.272%	-1.61%	-5.5%	-2.94%
C=CCn1c(=O)c2ccc(C(=O)NC(C)C)cc2n2c(=O)n(CC(=O)NC(C)CC)nc12 (stereo not drawn)	5.08%	0.349%	6.52%	2.57%	3.99%
